Reference: the supplement of paper PMC3724861
Some of the results follow.

system: T1, Caupolican (Caup) homeodomain DNA-binding domain; experiment: PBM E-score (8-mer, recovered from the published 9-mer minima) (E-score (dimensionless, -0.5 to 0.5)); Drosophila protein; higher = stronger relative binding preference, active = 0.31 or more
T1 sequence: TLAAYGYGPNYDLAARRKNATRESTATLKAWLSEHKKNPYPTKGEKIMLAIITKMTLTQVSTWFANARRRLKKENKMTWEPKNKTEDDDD
Method in brief: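 Caup's homeodomain DNA-binding domain (residues 214-303) was made by in vitro transcription and translation and applied at 100 nM to custom-designed protein binding microarrays. Each value is an enrichment score that gives relative binding preference for a short DNA word, with higher meaning stronger. The 8-mer values were recovered from published 9-mer scores, each of which was the minimum of its two constituent 8-mer scores. A cutoff of 0.31 marks candidate sites.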

Sequence	PBM E-score
CTGGCGAA	inactive: -0.118
AACTAAGC	inactive: 0.00617
GAGACCCA	inactive: -0.173
ACCAGGTG	inactive: -0.033
GAAAATAA	inactive: 0.101
CATTGCTC	inactive: -0.0487
CAGTCTTA	inactive: 0.0412
GGCCCGCC	inactive: -0.302
GTTTAGAA	inactive: 0.121
GTTCATTA	inactive: 0.14
ATCTGAGC	inactive: 0.0229
AGAAGGAC	inactive: -0.11
CTGAGATC	inactive: -0.158
ATTCGTTC	inactive: 0.0639
GAAAACTC	inactive: -0.0668
TCATGCGA	inactive: -0.0125
ATTTCAAC	inactive: 0.159
CGAGGCAG	inactive: -0.13
AACTCTGC	inactive: -0.123
GGAAACTA	inactive: -0.0739
ATTTCGCG	inactive: -0.0534
CTCCGAGA	inactive: -0.176
TACCTCTA	inactive: 0.0716
ACGACGGA	≥ 0.0398
CAGGGAGA	inactive: -0.185

Sequence	PBM E-score
AAGTTGGG	inactive: -0.113
AACAATGT	active: 0.345
AATTGGGA	inactive: 0.0634
AACCTGTG	inactive: 0.0952
TAACGCTA	inactive: -0.0254
ATTTACTG	inactive: 0.192
ATGGCTTG	inactive: 0.0539
ACACTAGT	inactive: 0.203
AATGCCCC	inactive: -0.162
CCGCGCAA	inactive: -0.0683
CGATTCGA	inactive: 0.0131
CTGGGCCC	inactive: -0.293
CCTAGTCG	inactive: -0.0446
CTACGAGC	inactive: -0.0318
ACGCTGTC	inactive: 0.0456
ATATTTTC	inactive: 0.129
ACTCAAGA	inactive: -0.0159
CTGCACAC	inactive: 0.0423
CGACGCTC	inactive: -0.151
GTTTGCAA	inactive: 0.169
AGGTTGTC	inactive: 0.267
ATCTCTGC	inactive: -0.0013
AGATAGCG	inactive: -0.0272
AACGACCG	inactive: -0.0242
AGTAAATA	inactive: 0.194

Sequence	PBM E-score
CAATCTTC	inactive: 0.0296
GTGCAGTA	inactive: -0.0289
GCCAACAC	inactive: 0.0511
GAGCTGGA	inactive: -0.102
ATCACTCC	inactive: 0.00786
ATACGCAG	inactive: -0.0118
CACGCCCC	inactive: -0.244
TGGTTTAA	≥ 0.118
ATCTCGTG	inactive: 0.0492
ATTCCCCC	inactive: -0.246
CAAATATC	inactive: 0.166
GTACCAGA	inactive: 0.149
GATAGCTA	inactive: 0.0116
CGACTGAC	inactive: -0.0927
ACGCTTCT	inactive: -0.12
CCCGTACA	inactive: 0.0807
GCAGCAAC	inactive: 0.00771
TATGTCCA	inactive: 0.214
ATGAACCC	inactive: -0.016
CACTTTGC	inactive: 0.0162
CGGGAGCA	inactive: -0.149
GGTGCAGA	inactive: -0.108
AATTGCCT	inactive: -0.0191
CCGTCTTC	inactive: -0.177
AGACCCAT	inactive: -0.068

Sequence	PBM E-score
CTACCTGA	inactive: 0.0418
CACCAAAG	inactive: -0.0937
CTCCCTGA	inactive: -0.0947
AAGCTAAC	inactive: 0.137
ATATTGAG	inactive: 0.0745
CAACTAGG	inactive: 0.0603
GATGCAGC	inactive: -0.0861
CAATTTCC	inactive: 0.023
ATACATCC	inactive: 0.276
AACTTCCA	inactive: -0.0702
AATCCATT	inactive: 0.102
AGGCCGAT	≥ -0.0908
AGCGCTGG	inactive: -0.168
CGTACTTA	inactive: 0.135
CACCACCC	inactive: -0.0973
CAACCGCA	inactive: -0.00954
ATGATCTC	inactive: 0.0147
CGTGAGTA	inactive: 0.0229
AAGCTCGC	inactive: -0.14
GACCGCCA	inactive: -0.199
AACTTGGG	inactive: -0.156
GGAATCTA	inactive: -0.0141
CACTCCCC	inactive: -0.125
CCATGGGG	inactive: -0.157
CGAGGTGA	inactive: -0.0862

Sequence	PBM E-score
GAGAAGGC	inactive: -0.233
AAATAGTC	inactive: 0.0311
AGCCAATA	inactive: 0.0164
CACTCTGG	inactive: -0.0952
GCCGTAAC	inactive: -0.00927
CTGTTAAA	inactive: 0.108
CGCTGCAC	inactive: -0.11
GGTTTGTA	inactive: 0.0967
ACTAATAC	inactive: 0.199
CGGCCTTC	inactive: -0.226
CCATGTAC	active: 0.411
AAATCGAG	inactive: -0.0744
ACCAGGGG	inactive: -0.212
ATACGAAA	inactive: 0.134
CCGCCCGA	inactive: -0.152
GACCCACA	inactive: -0.0733
ACAATTCG	inactive: 0.163
AGATGTTC	inactive: 0.286
CGGCACAA	inactive: 0.00537
AAATCCGC	inactive: -0.066
AAATACGC	inactive: 0.0502
AAGTCTTC	inactive: -0.0607
ATTCAGCG	inactive: -0.0867
CAAGCCAC	inactive: -0.14
AGACCCTA	inactive: -0.0889

Sequence	PBM E-score
CATTTTTC	inactive: 0.143
AACAATAC	inactive: 0.244
ATTACAAA	inactive: 0.259
TCACCACA	inactive: 0.0513
CAGGTATC	inactive: 0.134
ATGTATTG	active: 0.344
AATTCCTG	inactive: 0.0715
CAGACAGC	inactive: -0.0168
GTGCGTAA	inactive: 0.00367
ACAAGAGC	inactive: 0.168
GTCTCATA	inactive: 0.0899
TGGAACAA	inactive: 0.209
CTTCGCAC	inactive: -0.0448
AGTTACGG	inactive: -0.0308
AATGCGCA	inactive: 0.0385
AATTGACA	inactive: 0.203
CGTAGGGC	inactive: -0.165
AGCCTAGA	inactive: -0.0778
TCCCTCCA	inactive: -0.187
ACGCCGCA	inactive: -0.12
CATAGAAG	inactive: 0.12
AACTAACC	inactive: 0.137
ATTGTCAA	inactive: 0.183
ACCTAAGT	≥ 0.0447
CGAGAGCC	inactive: -0.232

Sequence	PBM E-score
CAGTTACC	inactive: 0.0281
ACGGGACT	inactive: -0.0525
GATAAATC	inactive: -0.0135
AAAAGCGC	inactive: -0.076
GAAATGGC	inactive: -0.164
TCATTCCA	inactive: 0.0323
GTGCCGCA	inactive: -0.121
TCGAGGCA	inactive: -0.0839
CAATGGCG	inactive: -0.144
AGCTCGAA	inactive: -0.141
AAGTATAA	inactive: 0.115
ACGGCACC	inactive: -0.189
GCCCACAA	inactive: -0.174
CATTCCTA	inactive: 0.0424
ACTCCTTA	inactive: -0.067
TCGAATCA	inactive: 0.0594
AATACTGC	inactive: -0.0125
CAGCCGGA	inactive: -0.0402
CAACCCGA	inactive: -0.0228
CGTTTCGA	inactive: 0.0154
ACGTGGCC	inactive: -0.139
ATTAATTA	inactive: 0.218
AGGAGTGA	inactive: -0.0269
AAACTACC	inactive: 0.168
AGAGGGGG	inactive: -0.383

Sequence	PBM E-score
AAACACGG	inactive: 0.257
ACGCGAAG	inactive: 0.0134
ACATTGTG	inactive: 0.229
ACATGGCA	inactive: 0.307
AACCCCAT	inactive: -0.0114
CAAGCACG	inactive: 0.0458
GCGGCGTA	inactive: -0.0911
AACCCCAC	inactive: -0.131
GACTCCCC	inactive: -0.259
CCCGTCCG	inactive: -0.302
ACTCCAGC	inactive: -0.185
CCAATCCA	inactive: -0.043
GCGACAGC	inactive: -0.0556
AAGATGCT	inactive: 0.00975
AAGAATGA	inactive: 0.103
TCTTCCCA	inactive: -0.106
AACCTTGT	inactive: 0.207
CGCTAGCG	inactive: -0.261
CAGGGGTA	inactive: -0.133
ACCACTAG	inactive: 0.0829
ACCGTCAT	≥ 0.00505
CGGCCCAG	inactive: -0.277
CCTCGACG	inactive: -0.188
AGGGTTGG	inactive: -0.0294
CAATTTTA	inactive: 0.0719

Sequence	PBM E-score
TACCGATA	inactive: 0.065
AATTGTCT	inactive: 0.111
CGAACTCC	inactive: 0.00427
CAACCCCG	inactive: -0.147
GCCTCAGA	inactive: -0.161
AACCCAGC	inactive: -0.153
GCGGACAC	inactive: -0.0411
GCCTATAA	inactive: -0.0055
AGAATTTG	inactive: 0.0543
GTGTCAAC	inactive: 0.272
AAAGCTGG	inactive: -0.142
TATATCCA	inactive: 0.091
AACCAGGG	inactive: -0.0676
ATGCAACA	inactive: 0.277
CACAGTCG	inactive: -0.00664
CATTCAAA	inactive: 0.0764
AGCTCCCG	inactive: -0.243
ATATATAC	inactive: 0.181
GCTCCGTA	inactive: -0.155
GTAGGAAA	inactive: 0.0479
TGAAAGCA	≥ 0.0589
CTGAGCCA	inactive: -0.172
ACGATCAG	inactive: 0.0119
